{
  "source": "patent US20260263442A1",
  "about": "“METHOD FOR TREATING L-DOPA-INDUCED DYSKINESIA USING BEFIRADOL” (Neurolixis, Inc., priority 2023, published 2026)",
  "test_system": "patients with moderate to severe L-DOPA-induced dyskinesia (LID) in Parkinson's disease",
  "test": "Adverse events, Phase 2a study of NLX-112 versus placebo",
  "data": [
    {"smiles": "Cc1ccc(CNCC2(F)CCN(C(=O)c3ccc(F)c(Cl)c3)CC2)nc1", "note": "[NLX-112]", "values": [
      {"measurement": "AE causality: Unlikely Related, subjects n (%)", "setting": "down-titration, N = 15", "result": "2 (13) n (%)"},
      {"measurement": "AE severity: Death, events m", "setting": "down-titration, N = 15", "result": 0},
      {"measurement": "AE severity: Death, subjects n (%)", "setting": "down-titration, N = 15", "result": "0 n (%)"},
      {"measurement": "AE severity: Life-Threatening, events m", "setting": "down-titration, N = 15", "result": 0},
      {"measurement": "AE severity: Life-Threatening, subjects n (%)", "setting": "down-titration, N = 15", "result": "0 n (%)"},
      {"measurement": "AE severity: Mild, events m", "setting": "down-titration, N = 15", "result": 3},
      {"measurement": "AE severity: Mild, subjects n (%)", "setting": "down-titration, N = 15", "result": "1 (6.7) n (%)"},
      {"measurement": "AE severity: Moderate, events m", "setting": "down-titration, N = 15", "result": 3},
      {"measurement": "AE severity: Moderate, subjects n (%)", "setting": "down-titration, N = 15", "result": "3 (20) n (%)"},
      {"measurement": "AE severity: Severe, events m", "setting": "down-titration, N = 15", "result": 0},
      {"measurement": "AE severity: Severe, subjects n (%)", "setting": "down-titration, N = 15", "result": "0 n (%)"},
      {"measurement": "Any AE leading to WFS, events m", "setting": "down-titration, N = 15", "result": 0},
      {"measurement": "Any AE leading to WFS, subjects n (%)", "setting": "down-titration, N = 15", "result": "0 n (%)"},
      {"measurement": "Any AE leading to death, events m", "setting": "down-titration, N = 15", "result": 0},
      {"measurement": "Any AE leading to death, subjects n (%)", "setting": "down-titration, N = 15", "result": "0 n (%)"},
      {"measurement": "Any AE, events m", "setting": "down-titration, N = 15", "result": 6},
      {"measurement": "Any AE, subjects n (%)", "setting": "down-titration, N = 15", "result": "4 (27) n (%)"},
      {"measurement": "Any SAE, events m", "setting": "down-titration, N = 15", "result": 0},
      {"measurement": "Any SAE, subjects n (%)", "setting": "down-titration, N = 15", "result": "0 n (%)"},
      {"measurement": "Back pain, events m", "setting": "down-titration, N = 15", "result": 1},
      {"measurement": "Back pain, subjects n (%)", "setting": "down-titration, N = 15", "result": "1 (6.7) n (%)"},
      {"measurement": "Dissociation, events m", "setting": "down-titration, N = 15", "result": 0},
      {"measurement": "Dissociation, subjects n (%)", "setting": "down-titration, N = 15", "result": "0 n (%)"},
      {"measurement": "Dizziness, events m", "setting": "down-titration, N = 15", "result": 0},
      {"measurement": "Dizziness, subjects n (%)", "setting": "down-titration, N = 15", "result": "0 n (%)"},
      {"measurement": "Dyskinesia, events m", "setting": "down-titration, N = 15", "result": 0},
      {"measurement": "Dyskinesia, subjects n (%)", "setting": "down-titration, N = 15", "result": "0 n (%)"},
      {"measurement": "Fall, events m", "setting": "down-titration, N = 15", "result": 0},
      {"measurement": "Fall, subjects n (%)", "setting": "down-titration, N = 15", "result": "0 n (%)"},
      {"measurement": "Fatigue, events m", "setting": "down-titration, N = 15", "result": 0},
      {"measurement": "Fatigue, subjects n (%)", "setting": "down-titration, N = 15", "result": "0 n (%)"},
      {"measurement": "Headache, events m", "setting": "down-titration, N = 15", "result": 1},
      {"measurement": "Headache, subjects n (%)", "setting": "down-titration, N = 15", "result": "1 (6.7) n (%)"},
      {"measurement": "Insomnia, events m", "setting": "down-titration, N = 15", "result": 1},
      {"measurement": "Insomnia, subjects n (%)", "setting": "down-titration, N = 15", "result": "1 (6.7) n (%)"},
      {"measurement": "Nausea, events m", "setting": "down-titration, N = 15", "result": 1},
      {"measurement": "Nausea, subjects n (%)", "setting": "down-titration, N = 15", "result": "1 (6.7) n (%)"},
      {"measurement": "Orthostatic hypotension, events m", "setting": "down-titration, N = 15", "result": 0},
      {"measurement": "Orthostatic hypotension, subjects n (%)", "setting": "down-titration, N = 15", "result": "0 n (%)"},
      {"measurement": "Parkinsonism, events m", "setting": "down-titration, N = 15", "result": 0},
      {"measurement": "Parkinsonism, subjects n (%)", "setting": "down-titration, N = 15", "result": "0 n (%)"},
      {"measurement": "Restless legs syndrome, events m", "setting": "down-titration, N = 15", "result": 0},
      {"measurement": "Restless legs syndrome, subjects n (%)", "setting": "down-titration, N = 15", "result": "0 n (%)"},
      {"measurement": "SAE: CA or BD, events m", "setting": "down-titration, N = 15", "result": 0},
      {"measurement": "SAE: CA or BD, subjects n (%)", "setting": "down-titration, N = 15", "result": "0 n (%)"},
      {"measurement": "SAE: ILT, events m", "setting": "down-titration, N = 15", "result": 0},
      {"measurement": "SAE: ILT, subjects n (%)", "setting": "down-titration, N = 15", "result": "0 n (%)"},
      {"measurement": "SAE: OMISE, events m", "setting": "down-titration, N = 15", "result": 0},
      {"measurement": "SAE: OMISE, subjects n (%)", "setting": "down-titration, N = 15", "result": "0 n (%)"},
      {"measurement": "SAE: PSD/I, events m", "setting": "down-titration, N = 15", "result": 0},
      {"measurement": "SAE: PSD/I, subjects n (%)", "setting": "down-titration, N = 15", "result": "0 n (%)"},
      {"measurement": "SAE: RPH, events m", "setting": "down-titration, N = 15", "result": 0},
      {"measurement": "SAE: RPH, subjects n (%)", "setting": "down-titration, N = 15", "result": "0 n (%)"},
      {"measurement": "Vertigo, events m", "setting": "down-titration, N = 15", "result": 0},
      {"measurement": "Vertigo, subjects n (%)", "setting": "down-titration, N = 15", "result": "0 n (%)"},
      {"measurement": "Vomiting, events m", "setting": "down-titration, N = 15", "result": 0},
      {"measurement": "Vomiting, subjects n (%)", "setting": "down-titration, N = 15", "result": "0 n (%)"},
      {"measurement": "Infections and infestations (system organ class), events m", "setting": "human, in vivo, 8 weeks", "result": 5},
      {"measurement": "Infections and infestations (system organ class), subjects n (%)", "setting": "human, in vivo, 8 weeks", "result": "3 (17%) n (%)"},
      {"measurement": "Respiratory tract infection, events m", "setting": "human, in vivo, 8 weeks", "result": 1},
      {"measurement": "Respiratory tract infection, subjects n (%)", "setting": "human, in vivo, 8 weeks", "result": "1 (5.6%) n (%)"},
      {"measurement": "Urinary tract infection, events m", "setting": "human, in vivo, 8 weeks", "result": 2},
      {"measurement": "Urinary tract infection, subjects n (%)", "setting": "human, in vivo, 8 weeks", "result": "1 (5.6%) n (%)"},
      {"measurement": "Most common AEs reported by patients on NLX-112", "setting": "in vivo", "result": "nausea, parkinsonism and headache"},
      {"measurement": "Patients with AEs that led to dose reductions or dose interruptions", "setting": "in vivo", "result": 4},
      {"measurement": "Patients who withdrew consent due to AEs and prematurely discontinued", "setting": "on and off phenomenon, vomiting and stress, possibly related", "result": "One"},
      {"measurement": "Proportion of patients experiencing dizziness", "setting": "same as the placebo group", "result": 11, "unit": "%"},
      {"measurement": "Back pain, events m", "setting": "stable dosing, N = 15", "result": 0},
      {"measurement": "Back pain, subjects n (%)", "setting": "stable dosing, N = 15", "result": "0 n (%)"},
      {"measurement": "Dissociation, events m", "setting": "stable dosing, N = 15", "result": 1},
      {"measurement": "Dissociation, subjects n (%)", "setting": "stable dosing, N = 15", "result": "1 (6.7) n (%)"},
      {"measurement": "Dizziness, events m", "setting": "stable dosing, N = 15", "result": 0},
      {"measurement": "Dizziness, subjects n (%)", "setting": "stable dosing, N = 15", "result": "0 n (%)"},
      {"measurement": "Dyskinesia, events m", "setting": "stable dosing, N = 15", "result": 0},
      {"measurement": "Dyskinesia, subjects n (%)", "setting": "stable dosing, N = 15", "result": "0 n (%)"},
      {"measurement": "Fall, events m", "setting": "stable dosing, N = 15", "result": 1},
      {"measurement": "Fall, subjects n (%)", "setting": "stable dosing, N = 15", "result": "1 (6.7) n (%)"},
      {"measurement": "Fatigue, events m", "setting": "stable dosing, N = 15", "result": 1},
      {"measurement": "Fatigue, subjects n (%)", "setting": "stable dosing, N = 15", "result": "1 (6.7) n (%)"},
      {"measurement": "Headache, events m", "setting": "stable dosing, N = 15", "result": 1},
      {"measurement": "Headache, subjects n (%)", "setting": "stable dosing, N = 15", "result": "1 (6.7) n (%)"},
      {"measurement": "Insomnia, events m", "setting": "stable dosing, N = 15", "result": 0},
      {"measurement": "Insomnia, subjects n (%)", "setting": "stable dosing, N = 15", "result": "0 n (%)"},
      {"measurement": "Nausea, events m", "setting": "stable dosing, N = 15", "result": 1},
      {"measurement": "Nausea, subjects n (%)", "setting": "stable dosing, N = 15", "result": "1 (6.7) n (%)"},
      {"measurement": "Orthostatic hypotension, events m", "setting": "stable dosing, N = 15", "result": 2},
      {"measurement": "Orthostatic hypotension, subjects n (%)", "setting": "stable dosing, N = 15", "result": "2 (13) n (%)"},
      {"measurement": "Parkinsonism, events m", "setting": "stable dosing, N = 15", "result": 0},
      {"measurement": "Parkinsonism, subjects n (%)", "setting": "stable dosing, N = 15", "result": "0 n (%)"},
      {"measurement": "Restless legs syndrome, events m", "setting": "stable dosing, N = 15", "result": 1},
      {"measurement": "Restless legs syndrome, subjects n (%)", "setting": "stable dosing, N = 15", "result": "1 (6.7) n (%)"},
      {"measurement": "Vertigo, events m", "setting": "stable dosing, N = 15", "result": 0},
      {"measurement": "Vertigo, subjects n (%)", "setting": "stable dosing, N = 15", "result": "0 n (%)"},
      {"measurement": "Vomiting, events m", "setting": "stable dosing, N = 15", "result": 0},
      {"measurement": "Vomiting, subjects n (%)", "setting": "stable dosing, N = 15", "result": "0 n (%)"},
      {"measurement": "AE action: Dose Not Changed, events m", "setting": "steady state, N = 15", "result": 9},
      {"measurement": "AE action: Dose Not Changed, subjects n (%)", "setting": "steady state, N = 15", "result": "7 (47) n (%)"},
      {"measurement": "AE action: Dose Reduced, events m", "setting": "steady state, N = 15", "result": 1},
      {"measurement": "AE action: Dose Reduced, subjects n (%)", "setting": "steady state, N = 15", "result": "1 (6.7) n (%)"},
      {"measurement": "AE action: Drug Interrupted, events m", "setting": "steady state, N = 15", "result": 0},
      {"measurement": "AE action: Drug Interrupted, subjects n (%)", "setting": "steady state, N = 15", "result": "0 n (%)"},
      {"measurement": "AE action: Not Applicable, events m", "setting": "steady state, N = 15", "result": 1},
      {"measurement": "AE action: Not Applicable, subjects n (%)", "setting": "steady state, N = 15", "result": "1 (6.7) n (%)"},
      {"measurement": "AE causality: Possibly Related, events m", "setting": "steady state, N = 15", "result": 7}
    ]}
  ]
}
